Measured values from the supplement of paper PMC11417369.
Some of the results follow.

Each sequence was assayed on PF3D7_0420300 AP2 domain 1 (GST-tagged) (assay: gcPBM binding intensity (ln(normalized median fluorescence intensity)); higher = stronger DNA binding).
Procedure, shortened: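 The highest Masliner-normalised natural-log median intensity across replicate spots of either probe orientation is reported as binding intensity. GST-tagged P. falciparum DNA-binding domains expressed in E. coli were applied for 1 h to an Agilent 4 × 180k array of primer-extended double-stranded 36-bp intergenic genomic probes plus negative controls, and bound protein was detected with Alexa488 anti-GST antibody and scanned at 488 nm.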

Sequence | gcPBM binding intensity (ln)
ATATTTTTAGATTCAGAAAAAAGATTCAACTTACTC [CACACA_negctrl_site1357] | 8.99
TAAATTATAAATTGCACACATATTTTTATATTTATA [CACACA_site2976] | 9.25
TATTTCATATGAAGAAGTACTATTAATAATTTCCTT [XGTACX_site6587] | 8.96
TTAATACATACATTCACACACACTAATTGTATATTT [CACACA_site9362] | 9.86
ATATATATATATAATACACACTTATGAAATGTCTAA [CACACA_site5077] | 9.36
TTCTTTTTTCGACACACACACACAAGAAGATATATA [CACACA_site7456] | 10.1
TGTACAAATATGTTGAAAATAAAATTTCAATATATT [XGTACX_negctrl_site13] | 9.02
ATACGAATAAATTTCGCATGCAGCATATATATCAAT [TGCATGCA_site612] | 9.17
AACGAAAATAAGAAAAGTACAAAAAATACCAAATAA [XGTACX_site6171] | 9.69
TGCCCTAACCATACTACACACACTGCTCAAAATAGT [CACACA_site2219] | 9.81
TATATATATTTATAATGTACACATATATGTAAATAT [XGTACX_site3695] | 9.23
TACAATATAAAATACACACACACAAACATATATTTA [CACACA_site5941] | 10.2
AAGAACCATATTTAAACACACATACCTATATAAATA [CACACA_site7553] | 9.49
ATAATTATATACCATGCACACAAATATTCATACAGG [CACACA_site9343] | 9.66
TATATACACATTTTTATACACACTTGTTTTATAAAA [CACACA_site8139] | 9.39
TTATGCATATATTATGCATGTAGTTTTAAATCACAT [TGCATGCA_site104] | 8.89
AAAAAATACATACATACACACATATTTATTTATATA [CACACA_site6554] | 9.63
GCACAAATATATATATATATATATATATATATATAT [GTGCAC_negctrl_site661] | 9.06
AATAAATAAATAAATAAATAAATATATATATATATA [GTGCAC_negctrl_site330] | 9.13
TAATGACAATAAAAATAAATAAATAAAAAAAAAAAA [TGCATGCA_negctrl_site321] | 9.18
ATATATTATCTGTACACACACATATAAGGGATTATA [CACACA_site4180] | 9.69
AAGGCATATATAATTTGTACATATTAAGAATTAGAT [XGTACX_site8660] | 9.24

Sequence | gcPBM binding intensity (ln)
TTTTTTGAAAATAAATGTACGAATTTTATATTTAAA [XGTACX_site2768] | 8.68
TGAAATAAAATTATTTGTACATATCGGAAAAAAAAA [XGTACX_site7131] | 9.16
AAGAAAATAAAAAGGTAAATATGTATAAATAAATAA [TGCATGCA_negctrl_site88] | 9.33
GATACAGATGGACACACACACATACATAAATACATA [CACACA_site5833] | 10
AAATTACCCATCCATACACACATATTTTTTTTAATT [CACACA_site2189] | 9.68
AAAATATATTATTATTGTACATATATTTTCATTTAC [XGTACX_site4593] | 9.37
AATTTTTATACGGATACACACAAAAAAAAATAAAAA [CACACA_site897] | 9.53
TAAATATATTTATAAGCACACACTAATAAACCCACA [CACACA_site390] | 9.83
TTTATTTTGTTTATGGTGCATTTTATGTAAATATAT | 9.4
AGTAGCGGCGGTATCATGCACACGTATAGATTGTAA [CACACA_site1587] | 9.32
TTGTTTATATATATATGTACATATTTTAAGGCATCC [XGTACX_site6976] | 9.1
CCACGTATACGATGCACACGTATGCTTTATATATAG [CACACA_site4108] | 9.36
ATTAAATCCGCACGCACACACACATATTAAGAAAAA [CACACA_site6062] | 9.76
GTTGAAAAAAATATATGTACGTATATATGTATGTAT [XGTACX_site8201] | 9.43
TTGGTAAATATATTTTGAATATAAGAAATATAGACG [CACACA_negctrl_site1634] | 9.16
ATTATTACTATATGTGTACACATCAACTGGTTTGAT [CACACA_site5563] | 9.39
TATATATATAACAGAATGCACTTTATATGTTCATAT [GTGCAC_site9880] | 9.23
TATACGTATACCTATACACACATATATTTATTTATA [CACACA_site6716] | 9.47
GATATCCTTATATTTGCACACACACCCAATAAAATG [CACACA_site1028] | 9.99
TAATAAATTCATAATTGTACATTGAAGTATTATGCA [XGTACX_site5121] | 9.05
TTTTTTTATTTTGTATGTACATATCATTTGATATTC [XGTACX_site8449] | 9.37
CACTTAAAAAGCTAACGTACAAATACACATATATAA [XGTACX_site1851] | 9.22
